# Laboratory results from PMC4336329 (PLoS ONE, 2015).
# The whole screen tested about 310,000 compounds, of which about 2,200 (0.71%) showed an effect of 50% or more. The effect is printed as a negative number. The list shows a part of the results.
# Target: human ether-à-go-go-related gene (hERG) potassium channel (human, UniProt Q12809)
# Experiment: primary screen, population patch clamp on CHO cells stably expressing hERG
# human ether-à-go-go-related gene (hERG) potassium channel, sequence (Q12809 whole entry, looked up): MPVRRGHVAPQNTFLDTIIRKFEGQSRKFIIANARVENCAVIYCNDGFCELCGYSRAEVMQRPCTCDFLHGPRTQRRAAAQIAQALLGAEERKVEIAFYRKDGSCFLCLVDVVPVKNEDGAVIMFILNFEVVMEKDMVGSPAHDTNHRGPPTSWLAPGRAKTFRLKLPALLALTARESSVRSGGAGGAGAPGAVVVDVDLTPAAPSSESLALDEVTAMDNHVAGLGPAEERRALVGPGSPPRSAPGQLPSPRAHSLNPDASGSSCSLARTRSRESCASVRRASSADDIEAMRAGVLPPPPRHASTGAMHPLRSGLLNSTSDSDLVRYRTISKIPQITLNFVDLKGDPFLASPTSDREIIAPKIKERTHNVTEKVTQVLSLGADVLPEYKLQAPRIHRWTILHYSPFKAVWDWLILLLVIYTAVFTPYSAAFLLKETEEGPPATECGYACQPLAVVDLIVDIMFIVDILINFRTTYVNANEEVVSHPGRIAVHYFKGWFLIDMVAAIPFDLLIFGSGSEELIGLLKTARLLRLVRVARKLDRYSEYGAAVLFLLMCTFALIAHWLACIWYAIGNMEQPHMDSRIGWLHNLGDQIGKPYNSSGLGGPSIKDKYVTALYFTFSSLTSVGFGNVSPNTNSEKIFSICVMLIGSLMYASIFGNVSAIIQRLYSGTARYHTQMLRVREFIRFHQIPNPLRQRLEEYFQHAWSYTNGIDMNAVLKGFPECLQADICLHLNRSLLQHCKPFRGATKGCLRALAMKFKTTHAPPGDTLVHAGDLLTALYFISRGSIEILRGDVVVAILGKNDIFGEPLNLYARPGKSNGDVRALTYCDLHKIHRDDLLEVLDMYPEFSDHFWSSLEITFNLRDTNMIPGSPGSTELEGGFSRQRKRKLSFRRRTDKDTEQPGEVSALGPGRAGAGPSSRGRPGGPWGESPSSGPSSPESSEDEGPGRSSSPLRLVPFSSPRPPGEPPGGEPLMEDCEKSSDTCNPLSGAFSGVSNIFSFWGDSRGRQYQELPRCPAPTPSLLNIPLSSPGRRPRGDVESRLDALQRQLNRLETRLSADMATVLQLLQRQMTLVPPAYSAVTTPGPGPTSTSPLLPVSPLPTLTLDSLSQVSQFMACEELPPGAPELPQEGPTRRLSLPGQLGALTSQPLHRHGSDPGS
row,SMILES,"hERG current change (%, negative = inhibition) at 1uM [%]"
1,COc1ccccc1NC(=O)CCS(=O)(=O)c1ccc2c(c1)oc(=O)n2C,8.69
2,CCn1c(SCc2ccccc2)nnc1-c1cccnc1,10.3
3,COc1cc(CCC(=O)NNC(=O)c2cccc(Cl)c2)cc(OC)c1OC,12.2
4,Clc1ccc(OCC#CCN2CCCCCC2)cc1.O=C(O)C(=O)O,-5.05
5,Cc1ccc(Nc2nnns2)cc1C,15.1
6,CCOc1ccc(-n2c(SCC(=O)Nc3ccc(OC)cc3)nc3sc4c(c3c2=O)CCN(C)C4)cc1,16.3
7,O=C(CSC1=NCCS1)N1CCCCCC1,7.93
8,Cc1ccc(/C=N/Nc2ccc(F)cc2F)s1,17.2
9,COc1ccc(Cc2nnc(SC)[nH]c2=O)cc1,19.8
10,O=c1cc(-c2ccccc2)nc2n1Cc1ccccc1-2,1.33
11,Cc1cc(O)ccc1NC(=O)c1ccccc1,9.91
12,Cc1ccc(-c2nnn(CC(=O)N(CC(=O)NCc3ccccc3)c3cccc(C)c3C)n2)o1,-5.84
13,O=C(COc1ccccc1)NNc1nc2c(F)cc(F)cc2s1,-14.7
14,CC(C)c1nnc(SCC(=O)NC2CCCCC2)n1C,16.2
15,O=C(CCc1ccc(O)cc1)NNC(=S)NCCc1ccccc1,10.7
16,COc1cc(C2Oc3cc(C4Oc5cc(O)cc(O)c5C(=O)C4O)ccc3OC2CO)ccc1O (centres unmarked),18.2
17,O=C(NCC(=O)N(CCN1CCOCC1)C(C(=O)NC1CCCC1)c1ccccc1)c1cccs1 (centres unmarked),5.12
18,Cc1cc(C)n2nc(NCc3ccccc3)nc2n1,-11.8
19,Cc1ccccc1NC(=O)C1CCN(C2=NS(=O)(=O)c3ccccc32)CC1,7.28
20,CCN(CC)CC(=O)NCc1cc(-c2ccc(OC)cc2)no1,6.12
21,CC(C)c1ccc(/C=C2\C(=O)N(CCN3CCOCC3)C(=S)N2C)cc1,11.4
22,Cc1ccc(/C=N/NC(=O)c2nnn(-c3nonc3N)c2CSc2ccc(Cl)cc2)o1,-3.72
23,N/C(=N\OC(=O)CCCOc1ccc(Cl)cc1Cl)c1ccccn1,3.47
24,O=C(Nc1ccc2c(c1)CCC2)c1ccc(F)c(S(=O)(=O)N2CCOCC2)c1,0.118
25,O=C(CCCCCC(=O)N(CCO)CCO)N(CCO)CCO,-2.52
26,COc1ccc(C)cc1N(C(=O)COc1ccccc1)c1nc2ccccc2s1,18.4
